Measurements reported in the supplement of paper PMC3334620.
The full ranking holds about 33,000 sequences; the median of “E-score (-0.5 to 0.5)” is about -0.043, and the highest 2% start at about 0.37. This is one part of the list.

target: T1, Upc2 (UniProt Q12151); experiment: PBM E-score (8-mer binding enrichment) (E-score (-0.5 to 0.5)); higher = stronger / more preferred TF binding; most listed sequences are background and not binding sites; conditions: protein concentration: 200 nM; construct: GST-full length
T1 sequence: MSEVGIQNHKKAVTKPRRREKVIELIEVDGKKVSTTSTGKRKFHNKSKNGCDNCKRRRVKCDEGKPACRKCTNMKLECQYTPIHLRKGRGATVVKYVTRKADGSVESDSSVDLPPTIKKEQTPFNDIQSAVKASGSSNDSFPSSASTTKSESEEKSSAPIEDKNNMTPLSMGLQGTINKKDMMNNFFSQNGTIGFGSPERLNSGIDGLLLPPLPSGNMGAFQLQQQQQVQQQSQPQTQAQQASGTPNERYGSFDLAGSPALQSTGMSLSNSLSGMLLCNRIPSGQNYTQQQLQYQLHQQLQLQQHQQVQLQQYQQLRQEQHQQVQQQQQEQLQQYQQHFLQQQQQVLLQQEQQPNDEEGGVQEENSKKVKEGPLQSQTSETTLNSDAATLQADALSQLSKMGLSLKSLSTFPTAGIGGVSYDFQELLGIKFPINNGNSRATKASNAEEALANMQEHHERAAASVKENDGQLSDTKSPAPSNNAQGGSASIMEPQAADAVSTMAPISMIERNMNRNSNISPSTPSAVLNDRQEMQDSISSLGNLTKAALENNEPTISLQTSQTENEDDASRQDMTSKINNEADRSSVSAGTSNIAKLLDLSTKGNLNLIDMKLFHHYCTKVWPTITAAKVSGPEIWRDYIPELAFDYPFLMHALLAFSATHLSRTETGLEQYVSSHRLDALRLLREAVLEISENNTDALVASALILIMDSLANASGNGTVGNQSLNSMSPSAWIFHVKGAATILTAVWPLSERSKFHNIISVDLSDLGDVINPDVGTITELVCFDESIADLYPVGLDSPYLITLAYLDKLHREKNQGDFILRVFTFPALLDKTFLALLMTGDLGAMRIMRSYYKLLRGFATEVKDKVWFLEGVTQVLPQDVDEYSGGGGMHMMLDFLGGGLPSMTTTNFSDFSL
Outline: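 Bound GST-tagged yeast transcription factors, applied at about 100-200 nM to double-stranded universal all-10-mer Agilent arrays, were detected with fluorescent anti-GST. Scans were normalised with masliner. A modified Wilcoxon-Mann-Whitney statistic, the E-score, was assigned to each ungapped eight-base word pooled with its reverse complement by the Universal PBM Analysis Suite.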

| Sequence | PBM E-score |
| --- | --- |
| ATCGGTAG | -0.0524 |
| ACCAGGGC | -0.188 |
| GATAAAAC | 0.238 |
| TACCCGGA | 0.12 |
| CCGAGTCA | -0.0448 |
| CCAATGGC | -0.226 |
| AGTCAGCC | -0.0587 |
| GGAAGACA | -0.111 |
| AATACCAT | -0.0768 |
| TAGTCATA | 0.0321 |
| AAAAGGTA | 0.101 |
| ACTCCGAA | -0.125 |
| ACTATTAG | 0.0061 |
| CATGTAAA | -0.0744 |
| ATAAAGAA | 0.00049 |
| AACCAATC | 0.0951 |
| AAGCGAGC | 0.335 |
| TGGACCCA | -0.221 |
| GGACACCC | -0.233 |
| GCAAGCGC | 0.102 |
| AAATGAGT | -0.0339 |
| ACGAAAGT | 0.304 |
| AACTTCAA | 0.0368 |
| ATAAAACC | 0.0496 |
| CTACGCGA | 0.261 |

| Sequence | PBM E-score |
| --- | --- |
| ATAAGAGA | 0.243 |
| GTGAAATA | 0.0114 |
| ATACATAG | -0.0133 |
| CATGACAG | -0.121 |
| GGACAACA | -0.0516 |
| ACCTTCGA | -0.0685 |
| ACACGACT | 0.194 |
| CATCGCAA | 0.0254 |
| GAACCTGA | -0.126 |
| CAGCTTAA | -0.0705 |
| GGAAAGTA | 0.0212 |
| CCCGTCAG | -0.302 |
| AACTGTGA | 0.0453 |
| ACCCCTCA | -0.117 |
| TCACGGGA | -0.0633 |
| AGATACAT | -0.172 |
| TGACAAAA | -0.0498 |
| TGCGCCCA | -0.183 |
| ATGCGATC | 0.213 |
| CATTAATC | 0.0546 |
| GGAGGTCA | -0.319 |
| AGGACCAT | -0.0361 |
| GATCATAA | 0.121 |
| AAACATAC | 0.171 |
| AGTCCTAC | 0.0484 |

| Sequence | PBM E-score |
| --- | --- |
| TCGCGGCA | 0.00548 |
| CCTACGGC | -0.21 |
| CACGACTG | 0.0762 |
| ACCGTTGC | 0.0183 |
| CGAGCTAC | 0.0491 |
| TACGGTCA | 0.332 |
| AGGTTGCG | -0.156 |
| GAGGCGCA | -0.104 |
| AAGTGCGC | -0.134 |
| GTATAAAC | 0.4 |
| CATAAGAA | 0.154 |
| GGAGCCTA | -0.238 |
| CTAATAGC | -0.103 |
| AAATAGGC | -0.0831 |
| ATGTCAAG | -0.24 |
| AGTATGGG | -0.192 |
| GAAGACCC | -0.268 |
| TAAATGGA | -0.2 |
| CCCAAATA | -0.136 |
| AATTATAA | 0.0533 |
| TACCTTGA | 0.00639 |
| ATACCGAT | 0.137 |
| TAAGAAGA | 0.11 |
| AAAGATGC | 0.15 |
| ACCATACT | 0.0287 |

| Sequence | PBM E-score |
| --- | --- |
| CGACTCCC | -0.0182 |
| GCGAACCA | 0.164 |
| CCACGCAG | 0.0616 |
| ATGAAAGG | -0.241 |
| GGTTAGGA | -0.0219 |
| AACCATAT | 0.122 |
| CGGAGCGA | 0.261 |
| GGAGTAAA | -0.0785 |
| ATCGCGCC | 0.0941 |
| AACAGCTT | -0.0977 |
| CACCTGAC | -0.247 |
| ATAAGCTG | -0.167 |
| ATTCGGGG | -0.0964 |
| CGGCTCCC | -0.00596 |
| CGCGCTTC | 0.0064 |
| CAAGTGGC | -0.244 |
| GCCAAGAA | -0.146 |
| TCTCAAAA | -0.133 |
| CGCACAAA | 0.214 |
| ACGAACCT | 0.244 |
| ATTCGGAA | 0.184 |
| CTAGTATA | 0.139 |
| AGGGTACT | -0.133 |
| ATCCAGCG | -0.0436 |
| ACTCAGAG | -0.264 |

| Sequence | PBM E-score |
| --- | --- |
| TAGACATA | -0.187 |
| AGACTCAT | -0.0217 |
| AATGATGT | -0.0427 |
| GAAGCCTC | -0.0508 |
| TGAGTCCA | -0.139 |
| AACTACAA | -0.0367 |
| AGTTCCGG | -0.0204 |
| GCCTTACC | -0.0799 |
| GGTGCGGA | -0.143 |
| GCACCGTA | 0.371 |
| ACTCGGTG | -0.157 |
| ATGTAACC | -0.00514 |
| CAGACAAC | -0.156 |
| ACACGGAG | -0.0181 |
| CTCTTTCC | -0.0582 |
| CCTACTGA | -0.206 |
| GCCGGATA | 0.0126 |
| GGGTTTCA | -0.196 |
| GGTCCCGA | 0.0868 |
| CGCGCTAC | 0.2 |
| ATAGCCTC | -0.00112 |
| AAACTTGG | -0.0415 |
| TGTCAACA | 0.0529 |
| ACTAGCCA | -0.0146 |
| AAGACTCC | -0.217 |

| Sequence | PBM E-score |
| --- | --- |
| CAGCTTTA | -0.0841 |
| AGCGCCTA | -0.116 |
| CGGGTGTC | -0.0137 |
| GGGTCGGA | 0.0691 |
| ACTGGTGG | -0.136 |
| GAACCTCA | -0.175 |
| GTGGACAA | -0.121 |
| CGAGTGTC | 0.109 |
| AAGGGTCC | -0.102 |
| CTATTACA | -0.0626 |
| TAAGCCCA | -0.0856 |
| AACGTCCC | -0.165 |
| CGATCGCC | 0.21 |
| CCAGCTAC | -0.174 |
| GAAGTACA | -0.0612 |
| AAAGGAGC | -0.113 |
| CACGCTAC | 0.096 |
| GATCCTTA | -0.063 |
| AGAAGGCG | -0.215 |
| CTGGATCC | 0.00733 |
| GGGTGGGA | 0.0703 |
| AATACGGT | 0.254 |
| GAACTCTC | -0.117 |
| CCCGTGGA | -0.189 |
| GAGGAACA | -0.092 |

| Sequence | PBM E-score |
| --- | --- |
| CCCCCCAA | -0.261 |
| CCGCCGTA | 0.351 |
| CTGTGACC | -0.0738 |
| GCGCCTAC | -0.0379 |
| ACACGCAT | -0.136 |
| CACCAAAC | 0.141 |
| ATTACTTG | 0.0678 |
| ATGCGCTG | -0.0752 |
| AAAAGCTC | 0.0262 |
| CGTGTAAA | 0.207 |
| CCTTGGTC | -0.0996 |
| CTATAGAG | -0.342 |
| CGCCACGC | -0.279 |
| AACCAGGA | -0.113 |
| TAGCAAAA | 0.0107 |
| GTGACCAC | -0.283 |
| CCTAGACC | -0.00842 |
| CTACCATA | -0.119 |
| ACCAGTTG | -0.0404 |
| TCCCTGAA | -0.0988 |
| CTAGTCTA | 0.0114 |
| AACTCTAT | -0.263 |
